In PubChem BioAssay (NCATS):
Several values for one entry are separate records, joined by “and”; a condition that tells them apart may be missing. Identical values can stand only once. The shares of active, inactive and inconclusive entries below differ from those in the screen. A potency beside an inconclusive call is a rough fit, not a confirmed value. Where a structure was tested more than once in an assay, its records may differ in their call. Activity calls are given as the source filed them. The call rests on the fitted dose curve; in most records, active means well fitted inhibition curve with a large enough effect; inconclusive means small, poorly fitted or top-dose-only effect; inactive means flat fitted curve, though single readings scatter.

System: UISO
Assay: qHTS assay to identify novel small-molecules to repurpose for Merkel cell carcinoma treatment (AID 1296009); further: nearly all actives have a fitted effect of over 60% in size
Conditions: MCC and control cell lines, CellTiter-Glo viability, 72 h; series mostly up to 46 µM
Method in brief: (§1)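 Cells were treated for 72 hr at 37 degree celsius with compounds in 8- or 11-point dose response. Viability was read by CellTiter-Glo luminescence, normalized to no-cell (cytotoxicity) and DMSO controls.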
Potency means the concentration at half of the fitted maximal effect; tags describe the fitted curve by direction and shape.

SMILES	Potency
Nc1ncnc2c1nc(Cl)n2[C@@H]1O[C@H](CO)[C@@H](O)[C@@H]1O	inconclusive: 20.9 µM [inhibitor, single point]
CCOC(=O)C1=C(N)Oc2ccc(Br)cc2C1C(C#N)C(=O)OCC (centres undefined)	inactive
CN1CCN(CCCN2c3ccccc3Sc3ccc(Cl)cc32)CC1	inconclusive: 29.9 µM [inhibitor, partial curve, poor fit]
CCC(=O)NC[C@H](Cc1ccc(OCCc2nc(-c3ccccc3)oc2C)cc1)NC(C)=CC(=O)c1ccc(C(F)(F)F)cc1	inconclusive: 4.18 µM [inhibitor, full curve]
CN(C)C1CCN(C(=O)c2ccc(NC(=O)Nc3nc(N4CCOCC4)nc(N4CCOCC4)n3)cc2)CC1	active: 0.0264 µM
COc1ccc(-c2nc3ccc(C4=NNC(=O)CC4C)cc3[nH]2)cc1 (centres undefined)	inconclusive: 11.9 µM [inhibitor, partial curve]
COc1ccccc1OCCNCC(O)COc1cccc2[nH]c3ccccc3c12 (centres undefined)	inconclusive: 29.9 µM [inhibitor, single point]
NS(=O)(=O)c1ccc(NC2=CC(=O)c3ccccc3C2=O)cc1	active: 2.64 µM
CCC[C@@H](NC(=O)[C@@H]1[C@H]2CCC[C@@H]2CN1C(=O)[C@@H](NC(=O)[C@@H](NC(=O)c1cnccn1)C1CCCCC1)C(C)(C)C)C(=O)C(=O)NC1CC1	inactive
COC1=C(OC)C(=O)C(CCCCCCCCCCO)=C(C)C1=O	inconclusive: 33.5 µM [inhibitor, single point]
Clc1ccc(C(Cn2ccnc2)OCc2c(Cl)cccc2Cl)c(Cl)c1 (centres undefined)	inconclusive: 29.9 µM [inhibitor, single point] and inconclusive: 23.5 µM [inhibitor, single point]
C[C@@]1(C(=O)Nc2ccc(F)nc2)CCCN1c1nc(Nc2cc(C3CC3)[nH]n2)c2cccn2n1	active: 0.0833 µM
Cc1ccc(-n2[nH]c(C)c(N=Nc3cccc(-c4cccc(C(=O)O)c4)c3O)c2=O)cc1C	inconclusive: 23.7 µM [inhibitor, single point]
Cc1ccc(C2=Nc3ccc(Cl)cc3OC2)cc1	inconclusive: 6.62 µM [inhibitor, full curve]
Cn1cnc2c1c(=O)[nH]c(=O)n2C	inconclusive: 29.6 µM [inhibitor, single point]

System: WaGa
Assay: as above
Conditions: MCC and control cell lines, CellTiter-Glo viability, 72 h; series mostly up to 46 µM
Method in brief: as §1

SMILES	Potency
CC1(C)S[C@H]2[C@H](NC(=O)[C@@H](N)c3ccc(O)cc3)C(=O)N2[C@@H]1C(=O)O	active: 2.64 µM
CCOC(=O)C1=C[C@]2(CC)CCCN3CCc4c(n1c1ccccc41)[C@@H]32	inconclusive: 33.5 µM [inhibitor, single point]
CCCc1cc(=O)[nH]c(=S)[nH]1	active: 18.7 µM
C[C@@H]1CCO[C@H]2Cn3cc(C(=O)NCc4ccc(F)cc4F)c(=O)c(O)c3C(=O)N12	inconclusive: 23.5 µM [inhibitor, single point]
CC1(C)SCCN(S(=O)(=O)c2ccc(OCC#CCO)cc2)[C@@H]1C(=O)NO	inconclusive: 16.6 µM [inhibitor, partial curve]
CC[C@H](NC(=O)[C@H](C)NC)C(=O)N1C[C@@H](O)C[C@H]1Cc1c(-c2[nH]c3cc(F)ccc3c2C[C@H]2C[C@H](O)CN2C(=O)[C@H](CC)NC(=O)[C@H](C)NC)[nH]c2cc(F)ccc12	inconclusive: 1.18 µM [inhibitor, full curve]
Nc1ncnc2c1nc(Cl)n2[C@@H]1O[C@H](CO)[C@@H](O)[C@@H]1O	inconclusive: 23.5 µM [inhibitor, single point]
CCCCC(C)(C)[C@H](O)C=C[C@H]1[C@H](O)CC(=O)[C@H]1CC=CCCCC(=O)O	inconclusive: 18.7 µM [inhibitor, single point]
CC(=O)O[C@]1(C(C)=O)CC[C@@H]2[C@@H]3C[C@H](C)C4=CC(=O)CC[C@]4(C)[C@H]3CC[C@@]21C	inconclusive: 16.6 µM [inhibitor, partial curve]
CN(CCOc1ccc(NS(C)(=O)=O)cc1)CCc1ccc(NS(C)(=O)=O)cc1	inactive
CN1CCN(CCCN2c3ccccc3Sc3ccc(Cl)cc32)CC1	inconclusive: 23.5 µM [inhibitor, single point] and inconclusive: 21.1 µM [inhibitor, single point]
CCC(=O)NC[C@H](Cc1ccc(OCCc2nc(-c3ccccc3)oc2C)cc1)NC(C)=CC(=O)c1ccc(C(F)(F)F)cc1	active: 4.69 µM
CN(C)N=Nc1nc[nH]c1C(N)=O	inconclusive: 2.64 µM [inhibitor, full curve]
CC(C)C[C@H](CC(=O)O)C(=O)N[C@@H](Cc1c[nH]c2ccccc12)C(=O)N[C@@H](C)c1ccccc1	active: 3.32 µM
COc1ccc(-c2nc3ccc(C4=NNC(=O)CC4C)cc3[nH]2)cc1 (centres undefined)	inconclusive: 23.7 µM [inhibitor, partial curve]
COc1ccccc1OCCNCC(O)COc1cccc2[nH]c3ccccc3c12 (centres undefined)	inconclusive: 23.7 µM [inhibitor, single point]
NS(=O)(=O)c1ccc(NC2=CC(=O)c3ccccc3C2=O)cc1	inconclusive: 5.9 µM [inhibitor, full curve]
COC1=C(OC)C(=O)C(CCCCCCCCCCO)=C(C)C1=O	inconclusive: 21.1 µM [inhibitor, single point] and inconclusive: 18.7 µM [inhibitor, partial curve]
Clc1ccc(C(Cn2ccnc2)OCc2c(Cl)cccc2Cl)c(Cl)c1 (centres undefined)	active: 23.7 µM and inactive
CC(C)(Cc1ccc2ccccc2c1)NC[C@@H](O)COc1cccc(Cl)c1C#N	inconclusive: 33.2 µM [inhibitor, partial curve, poor fit]
CO[C@H]1C[C@@H]2CC[C@@H](C)[C@@](O)(O2)C(=O)C(=O)N2CCCC[C@@H]2C(=O)O[C@H]([C@@H](C)C[C@@H]2CC[C@H](O)[C@H](OC)C2)CC(=O)[C@H](C)C=C(C)[C@@H](O)[C@@H](OC)C(=O)[C@H](C)C[C@H](C)C=CC=CC=C1C	inconclusive: 23.5 µM [inhibitor, partial curve]
COc1cc2c(cc1Cc1cccc(Cl)c1F)c(=O)c(C(=O)O)cn2[C@H](CO)C(C)C	inconclusive: 23.5 µM [inhibitor, single point]
Cc1ccc(-n2[nH]c(C)c(N=Nc3cccc(-c4cccc(C(=O)O)c4)c3O)c2=O)cc1C	inconclusive: 33.5 µM [inhibitor, single point]
Cc1ccc2c(c1)C(=O)[C@]1(O)CCN(c3ccccc3)C1=N2	inconclusive: 23.5 µM [inhibitor, single point]
CCC[C@H](N[C@@H](C)C(=O)N1[C@@H]2CCCC[C@H]2C[C@H]1C(=O)O)C(=O)OCC	inactive
O=c1ccc2ccc(O)c(O)c2o1	inconclusive: 18.7 µM [inhibitor, single point]
Cc1ccc(C2=Nc3ccc(Cl)cc3OC2)cc1	inconclusive: 14.8 µM [inhibitor, partial curve]
CC(=O)SCC(Cc1ccccc1)C(=O)NCC(=O)OCc1ccccc1 (centres undefined)	inconclusive: 0.166 µM [inhibitor, full curve]
Cn1cnc2c1c(=O)[nH]c(=O)n2C	inactive and inconclusive: 26.4 µM [inhibitor, single point]
